Some of the results follow.
How the values were obtained:
Assay in all cases: glycan array binding signal (z-score within array); higher = stronger binding
Details in all cases: glycan notation: IUPAC condensed, linker removed
[1] = biological target: Fuc(a1-2)[GalNAc(a1-3)]Gal(b1-4)GlcNAc(b1-3)[Fuc(a1-2)[GalNAc(a1-3)]Gal(b1-4)GlcNAc(b1-6)]GalNAc
Method in brief: (§1)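 Glycan array data came from 3228 arrays in the Consortium for Functional Glycomics database, and only arrays with an available protein sequence were kept. Glycan names were put into IUPAC-condensed notation, and columns mapping to the same glycan were averaged. The binding signal is a within-array Z-score, averaged across arrays of one protein sequence run at different concentrations or buffers and across linkers. A negative Z-score can be read as non-binding.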

[2] = biological target: Fuc(a1-2)[GalNAc(a1-3)]Gal(b1-4)GlcNAc(b1-6)GalNAc
Method in brief: as §1

[3] = biological target: Fuc(a1-2)[GalNAc(a1-3)]Gal(b1-4)[Fuc(a1-3)]GlcNAc
Method in brief: as §1

[4] = biological target: Fuc(a1-2)[GalNAc(a1-3)]Gal(b1-4)[Fuc(a1-3)]GlcNAc(b1-3)GalNAc
Method in brief: as §1

[5] = biological target: Fuc(a1-2)[GalNAc(a1-4)]Gal(b1-4)GlcNAc
Method in brief: as §1

[6] = biological target: Fuc(a1-2)[GalNAc(b1-3)]Gal
Method in brief: as §1

[7] = biological target: Fuc(a1-3)GlcNAc
Method in brief: as §1

[8] = biological target: Fuc(a1-3)[Gal(b1-4)]Glc6S
Method in brief: as §1

[9] = biological target: Fuc(a1-3)[Gal(b1-4)]GlcNAc
Method in brief: as §1

[10] = biological target: Fuc(a1-3)[Gal(b1-4)]GlcNAc(b1-2)Man
Method in brief: as §1

[11] = biological target: Fuc(a1-3)[Gal(b1-4)]GlcNAc(b1-2)Man(a1-3)[Fuc(a1-3)[Gal(b1-4)]GlcNAc(b1-2)Man(a1-6)]Man(b1-4)GlcNAc(b1-4)GlcNAc
Method in brief: as §1

[12] = biological target: Fuc(a1-3)[Gal(b1-4)]GlcNAc(b1-2)Man(a1-3)[Fuc(a1-3)[Gal(b1-4)]GlcNAc(b1-2)Man(a1-6)]Man(b1-4)GlcNAc(b1-4)[Fuc(a1-6)]GlcNAc
Method in brief: as §1

[13] = biological target: Fuc(a1-3)[Gal(b1-4)]GlcNAc(b1-3)Gal(b1-3)[Fuc(a1-4)]GlcNAc
Method in brief: as §1

[14] = biological target: Fuc(a1-3)[Gal(b1-4)]GlcNAc(b1-3)Gal(b1-4)[Fuc(a1-3)]GlcNAc
Method in brief: as §1

[15] = biological target: Fuc(a1-3)[Gal(b1-4)]GlcNAc(b1-3)Gal(b1-4)[Fuc(a1-3)]GlcNAc(b1-3)Gal(b1-4)[Fuc(a1-3)]GlcNAc
Method in brief: as §1

[16] = biological target: Fuc(a1-3)[Gal(b1-4)]GlcNAc(b1-3)GalNAc
Method in brief: as §1

[17] = biological target: Fuc(a1-3)[Gal(b1-4)]GlcNAc(b1-4)Gal(b1-4)[Fuc(a1-3)]GlcNAc
Method in brief: as §1

[18] = biological target: Fuc(a1-3)[Gal(b1-4)]GlcNAc(b1-4)Gal(b1-4)[Fuc(a1-3)]GlcNAc(b1-4)Gal(b1-4)[Fuc(a1-3)]GlcNAc
Method in brief: as §1

[19] = biological target: Fuc(a1-3)[Gal(b1-4)]GlcNAc(b1-6)GalNAc
Method in brief: as §1

[20] = biological target: Fuc(a1-3)[Gal(b1-4)]GlcNAc(b1-6)[Gal(b1-3)GlcNAc(b1-3)]Gal(b1-4)Glc
Method in brief: as §1

[21] = biological target: Fuc(a1-3)[Gal(b1-4)]GlcNAc6S
Method in brief: as §1

[22] = biological target: Fuc(a1-3)[Gal3S(b1-4)]Glc
Method in brief: as §1

[23] = biological target: Fuc(a1-3)[Gal3S(b1-4)]GlcNAc
Method in brief: as §1

[24] = biological target: Fuc(a1-3)[Gal3S(b1-4)]GlcNAc6S
Method in brief: as §1

[25] = biological target: Fuc(a1-3)[GalNAc(b1-4)]Gal(b1-4)GlcNAc
Method in brief: as §1

[26] = biological target: Fuc(a1-3)[GalNAc(b1-4)]GlcNAc
Method in brief: as §1

[27] = biological target: Fuc(a1-3)[GalNAc(b1-4)]GlcNAc6S
Method in brief: as §1

[28] = biological target: Fuc(a1-4)GlcNAc
Method in brief: as §1

[29] = biological target: Fuc(b1-3)GlcNAc
Method in brief: as §1

[30] = biological target: Gal(a1-2)Gal
Method in brief: as §1

[31] = biological target: Gal(a1-3)Gal
Method in brief: as §1

[32] = biological target: Gal(a1-3)Gal(b1-3)Glc
Method in brief: as §1

[33] = biological target: Gal(a1-3)Gal(b1-3)GlcNAc
Method in brief: as §1

[34] = biological target: Gal(a1-3)Gal(b1-3)GlcNAc(b1-2)Man
Method in brief: as §1

[35] = biological target: Gal(a1-3)Gal(b1-3)GlcNAc(b1-2)Man(a1-3)[Gal(a1-3)Gal(b1-3)GlcNAc(b1-2)Man(a1-6)]Man(b1-4)GlcNAc(b1-4)GlcNAc
Method in brief: as §1

[36] = biological target: Gal(a1-3)Gal(b1-3)GlcNAc(b1-3)GalNAc
Method in brief: as §1

[37] = biological target: Gal(a1-3)Gal(b1-3)GlcNAc(b1-6)GalNAc
Method in brief: as §1

B1: Epa12 (Candida glabrata) (protein)
chain: MGSSHHHHHHSSGLVPRGSHMLEPDNSLQIFDSFLSNPSKYPLGCSPKITNPKKGLSMELYSYPYRKKGSHPCWDPAYLDPNFPRVGYKKNKLIARVDGVSGDINFNFHPKRQCTPIADYLPPNFNYNEPITTTNFTMLLYGYFKPKVTGLHTFDISADDLLFMNFGAGNAFDCCRRDSTADTFGNYVAWAIWGRRIVRNKLTVRLDKGIYYPLRLFFNNRDYYGQMRLTFKTEHGSERITDFSDYFFSVDDTSEGCPGLITYESECADVKSSTVLETDYITIQAEKE
glycan array binding signal (z-score) [1]: -0.028 | glycan array binding signal (z-score) [2]: -0.311 | glycan array binding signal (z-score) [3]: -0.268 | glycan array binding signal (z-score) [4]: -0.353 | glycan array binding signal (z-score) [5]: -0.296 | glycan array binding signal (z-score) [6]: -0.277 | glycan array binding signal (z-score) [7]: -0.335 | glycan array binding signal (z-score) [8]: 0.203 | glycan array binding signal (z-score) [9]: -0.333 | glycan array binding signal (z-score) [10]: -0.289 | glycan array binding signal (z-score) [11]: -0.383 | glycan array binding signal (z-score) [12]: -0.174 | glycan array binding signal (z-score) [13]: -0.32 | glycan array binding signal (z-score) [14]: -0.3 | glycan array binding signal (z-score) [15]: -0.305 | glycan array binding signal (z-score) [16]: -0.27 | glycan array binding signal (z-score) [17]: -0.255 | glycan array binding signal (z-score) [18]: 0.964 | glycan array binding signal (z-score) [19]: -0.306 | glycan array binding signal (z-score) [20]: -0.018 | glycan array binding signal (z-score) [21]: 0.364 | glycan array binding signal (z-score) [22]: -0.279 | glycan array binding signal (z-score) [23]: 0.051 | glycan array binding signal (z-score) [24]: -0.206 | glycan array binding signal (z-score) [25]: -0.287 | glycan array binding signal (z-score) [26]: -0.339 | glycan array binding signal (z-score) [27]: -0.366 | glycan array binding signal (z-score) [28]: -0.241 | glycan array binding signal (z-score) [29]: -0.313 | glycan array binding signal (z-score) [30]: 0.092 | glycan array binding signal (z-score) [31]: 2.18 | glycan array binding signal (z-score) [32]: -0.242 | glycan array binding signal (z-score) [33]: 1.71 | glycan array binding signal (z-score) [34]: 3.52 | glycan array binding signal (z-score) [35]: 0.261 | glycan array binding signal (z-score) [36]: 1.07 | glycan array binding signal (z-score) [37]: 4.44

— the supplement of paper PMC8728848
